Reference: PubChem BioAssay AID488969 (Vanderbilt High Throughput Screening Facility, 2010)
The full ranking holds about 110,000 compounds; the median of “z-score” is about -0.1, and the highest 2% start at about 2. The list shows a part of the results.

Molecular target: Metabotropic glutamate receptor 8 (Rattus norvegicus) (UniProt P70579)
Assay: rat mGluR8 modulators via GIRK flux, primary screen, cell-based, thallium flux, HTS (AID 488969)
Conditions: HEK293 rat mGluR8, GIRK (G protein-gated inwardly rectifying potassium channel) thallium flux, FluoZin2; at 10 µM; stronger effect = higher value; submaximal glutamate (EC20) added with thallium

Sequence of UniProt P70579 (P70579 whole entry, looked up): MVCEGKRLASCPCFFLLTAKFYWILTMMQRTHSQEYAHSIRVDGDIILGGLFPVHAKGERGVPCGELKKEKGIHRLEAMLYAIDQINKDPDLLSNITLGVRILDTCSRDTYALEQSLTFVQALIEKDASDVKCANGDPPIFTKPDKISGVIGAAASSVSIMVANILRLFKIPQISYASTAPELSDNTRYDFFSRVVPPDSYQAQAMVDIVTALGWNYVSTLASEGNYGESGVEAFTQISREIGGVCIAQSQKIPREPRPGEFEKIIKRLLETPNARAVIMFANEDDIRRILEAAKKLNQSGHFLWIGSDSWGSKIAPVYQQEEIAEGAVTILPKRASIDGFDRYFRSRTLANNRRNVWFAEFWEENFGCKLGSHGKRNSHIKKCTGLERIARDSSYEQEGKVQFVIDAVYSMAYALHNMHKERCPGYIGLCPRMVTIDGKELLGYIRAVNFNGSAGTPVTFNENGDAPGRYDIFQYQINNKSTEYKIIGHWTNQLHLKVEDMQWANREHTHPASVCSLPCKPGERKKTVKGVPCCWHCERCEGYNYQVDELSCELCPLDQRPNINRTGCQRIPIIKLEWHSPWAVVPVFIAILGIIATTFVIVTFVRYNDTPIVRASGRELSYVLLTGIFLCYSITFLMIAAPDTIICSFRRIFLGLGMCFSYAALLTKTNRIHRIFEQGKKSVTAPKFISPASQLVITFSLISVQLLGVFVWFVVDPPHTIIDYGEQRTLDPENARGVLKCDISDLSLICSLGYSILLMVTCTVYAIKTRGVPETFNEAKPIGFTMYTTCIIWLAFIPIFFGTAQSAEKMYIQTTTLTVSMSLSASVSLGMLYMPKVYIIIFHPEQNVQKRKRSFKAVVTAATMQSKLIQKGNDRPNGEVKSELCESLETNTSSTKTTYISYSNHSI

Compound | z-score
CSc1nccn1CC(=O)Nc1ccc(F)cc1 | 0.0448
COc1cc(C(=O)Nc2nc(-c3cc(C)ccc3C)c(C)s2)ccc1OCC(=O)Nc1ccc(F)cc1 | 0.361
Cc1cc(/C=C(/C#N)c2cccc(Cl)c2)c(C)n1C | -0.21
CCN=C1SC(CC(=O)Nc2sc3c(c2C#N)CCCC3)C(=O)N1CC (stereo unspecified) | -0.517
Cc1ccc(OCC(=O)N(Cc2ccccc2)C2CCS(=O)(=O)C2)c([N+](=O)[O-])n1 (stereo unspecified) | -0.163
O=C(Nc1ccc2oc(-c3ccccc3Cl)nc2c1)c1cncc(Br)c1 | -0.624
Cc1nc2cc(NC(=O)N3CCC(c4ccccc4)C3)ccc2n1C (stereo unspecified) | -0.227
CC(C)(C)NC(=O)c1cccc(NC(=O)Cc2ccc(Br)cc2)c1 | -0.512
CCOC(=O)c1cnc(SC)nc1Oc1cccc(NC(=O)c2ccc(Cl)cc2)c1 | -0.164
C#CCn1cc(/C=N/NC(=O)COc2cccc3cccnc23)c2ccccc21 | -0.0614
CC(C)Oc1cccc(C(=O)NC(=S)Nc2ccc(Cl)c(C(=O)O)c2)c1 | -0.562
CCOC(=O)C(C)(C)N(Cc1cccc(C)c1)S(=O)(=O)c1ccc(Cl)c([N+](=O)[O-])c1 | -0.206
N#Cc1cc2c(nc1SCC(=O)Nc1sc3c(c1C#N)CCC3)CCCCC2 | -0.373
COc1cccc(C(=O)Nc2nnc(-c3cccs3)s2)c1 | 0.914
COC(=O)c1ccc(N=NNc2cccc(Br)c2)cc1 | -0.315
Cc1ccc(-c2nnc(N3CCN(C(=O)CN4C(=O)c5ccccc5C4=O)CC3)c3ccccc23)cc1 | -0.137
Clc1ccc(CSc2nnc(-c3sccc3-n3cccc3)o2)cc1 | -0.0075
CCS(=O)(=O)NC(C)C(c1cccs1)N1CCN(c2ccc(F)cc2)CC1 (stereo unspecified) | 0.062
COc1ccccc1-n1c(SCC(=O)NC(C)(C)C)nnc1-c1ccco1 | 0.0608
Cc1cc(-c2ccccc2)nc(N2CCC(C(=O)NC34CC5CC(CC(C5)C3)C4)CC2)n1 | -0.0703
COC(=O)c1c(NC(=O)C2CC=CCC2C(=O)O)sc(C)c1C (stereo unspecified) | 0.85
S=C(NC1CCCCC1)c1ccc2c(c1)OCO2 | -0.0677
O=S(=O)(c1ccccc1)c1nc(-c2ccco2)oc1NCCCN1CCOCC1 | -0.319
CCC(=O)c1ccc(N2CCN(C(=O)Cc3ccccc3)CC2)c(F)c1 | -0.255

Compound | z-score
CSc1ccc(S(=O)(=O)NCCOc2ccccc2C)cc1 | -0.0297
CCc1ccc(OCc2nc(-c3ccccn3)no2)c(Br)c1 | 0.404
O=c1c(F)cn(C2CCCO2)c(=O)n1Cc1c(Cl)cccc1Cl (stereo unspecified) | -0.131
CCN(CC)C(=O)N1CCN(S(=O)(=O)c2ccc(C)cc2)CC1 | -0.103
COc1cc(C(=O)N2CCN(c3ccc([N+](=O)[O-])cc3)CC2)ccc1OCc1c(C)noc1C | -1.12
O=C(CSc1nnc(CNc2ccccc2)o1)N1CCc2ccccc21 | -0.0854
CC1CCCCC1NC(=O)COC(=O)c1ccccn1 (stereo unspecified) | -0.0412
CC(C)(C)NC(=O)Cn1nnnc1-c1nonc1N | 0.603
CCOC(=O)C1CCCN(Cc2cc(Br)c(OC)cc2OC)C1 (stereo unspecified) | -0.00798
CCOc1ccc2nc(C(=O)N3CCCC(C)C3)sc2c1 (stereo unspecified) | -0.253
O=C(COC(=O)c1ccccn1)Nc1nccs1 | -0.313
O=C(NNc1cccc(Cl)n1)Nc1ccc(Cl)cc1 | 0.0783
Cc1ccc(N(C(C)C(=O)Nc2ccccc2C(=O)N2CCOCC2)S(C)(=O)=O)cc1C (stereo unspecified) | 0.699
O=C(N1CCOCC1)N(CCN1CCOCC1)Cc1cccc2ccccc12 | 0.0182
Cc1ccc(S(=O)(=O)NCCc2ccncc2)cc1 | -0.472
c1csc(-c2nc3c4ccccc4c4ccccc4c3[nH]2)c1 | 0.232
CCN(CC)CCCNC(=O)c1nn(-c2cccc(OC)c2)c(=O)c2ccccc12 | -0.854
CCc1ccc(OCC(=O)NC(NC(=S)Nc2ccccc2OC)C(Cl)(Cl)Cl)cc1 (stereo unspecified) | -0.163
O=c1cc(NCC2CCCO2)[nH]c(=O)n1-c1ccc(Cl)cc1 (stereo unspecified) | -0.29
NCC(O)COc1ccc2c(c1)OCO2 (stereo unspecified) | -0.185
Cc1ccc(OCC(=O)N/N=C/c2ccco2)cc1 | -0.143
COCCNC(=O)C(c1ccc(C)o1)N(C(=O)c1snc(C(N)=O)c1N)c1ccc(C)cc1 (stereo unspecified) | -0.867
Cc1ccc(NC(=O)N2CCC(NC(=O)C(C)(C)C)CC2)cc1 | -0.173
CCCCOc1ccc2ccccc2c1C=O | -0.427

Compound | z-score
C=CCn1c(N)c(C(=O)Nc2ccccc2OC)sc1=S | 0.333
COc1cc2c(cc1OC)CN(CC(=O)Nc1ccc3c(c1)OC(F)(F)O3)CC2 | -0.249
O=C(Nc1nccs1)c1cccc(N2C(=O)C3C4C=CC(C4)C3C2=O)c1 (stereo unspecified) | -0.0728
Cc1ccc(C2=NN(CC(=O)NCc3cccnc3)C(=O)CC2)cc1 | -0.0412
Cc1cc(C)c(S(=O)(=O)N2CCCCC2)c(C)c1N(C)S(=O)(=O)c1ccccc1 | -0.375
N#Cc1nc(COc2ccc(Cl)cc2)oc1N1CCCCCC1 | -0.453
Cc1ccc(N(CCC#N)C(=O)CSc2ccc3c(c2)OCCO3)cc1 | -0.201
COc1ccc(N(C(=O)C(C)C)S(=O)(=O)c2ccc3c(c2)n(C)c(=O)n3C)cc1 | 0.192
CC1=C(C)CC(C(=O)NCC(=O)c2ccccc2)C(C(=O)O)C1 (stereo unspecified) | 0.264
CCOc1ccccc1Nc1ncccc1C(=O)N1CCCC1 | 1.1
Cn1cnc([N+](=O)[O-])c1Sc1ccccc1 | 0.0869
O=C1c2ccccc2C(=O)N1CCc1nn[nH]n1 | -0.346
Cc1cc(C(=O)OCCO)c(C#N)c(N)n1 | 0.857
O=CN1CCN(C2CC(=O)N(c3ccc4c(c3)OCO4)C2=O)CC1 (stereo unspecified) | 0.502
O=S(=O)(NCc1ccc2c(c1)OCO2)c1cccc2cccnc12 | 0.102
CN(C)CCN(Cc1ccccc1)c1ccnc(N(C)C)c1C#N | 0.043
O=C(NNS(=O)(=O)c1ccccc1[N+](=O)[O-])c1ccc(O)cc1 | -0.424
O=C(C1CCN(S(=O)(=O)c2cccnc2)CC1)N1CCN(C2CCCC2)CC1 | -0.318
O=C(c1ccc(Cl)c(S(=O)(=O)Nc2ccc(F)cc2)c1)N1CCN(c2ccccn2)CC1 | -0.254
CCOc1ccc(CCNC(=O)CSc2cc(=O)n(C)c3ccccc23)cc1OCC | -0.0411
O=C(C[n+]1ccc2ccccc2c1)Nc1cc(C(F)(F)F)ccc1Cl | -0.746
O=C(Nc1ccccc1)C1CC(=O)n2ncnc2N1 (stereo unspecified) | -0.09
CCn1c(C)nc2c1C(=O)c1ccccc1C2=O | -0.0161
